Test results from the supplement of paper PMC9446081.
Screen size: about 39,000 compounds; about 220 (0.56%) showed activity. The list shows a part of the results.

system: Escherichia coli K-12 BW25113; test: relative growth (OD600 normalised to plate interquartile mean) (fraction); higher = less growth inhibition, active = 0.2 or less; conditions: 50 µM; LB; incubation time: overnight (16-24 h)
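Further: static incubation at 37 °C against the wild-type strain, values averaged over two biological replicates.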

Row | SMILES | relative growth
1 | C[C@@H]1CCCCO[C@@H](CN(C)C(=O)Cc2ccccc2)[C@H](C)CN([C@H](C)CO)C(=O)c2cc(NC(=O)CCC(F)(F)F)ccc2O1 | inactive: 0.991
2 | C[C@@H]1CCCCO[C@H](CN(C)S(=O)(=O)c2cccs2)[C@H](C)CN([C@H](C)CO)C(=O)c2cc(NC(=O)c3ccccc3)ccc2O1 | inactive: 1.01
3 | O=C(C[C@@H]1C=C[C@H](NS(=O)(=O)c2ccc(F)cc2)[C@@H](CO)O1)N1CCC(Cc2ccccc2)CC1 | inactive: 1.01
4 | COc1ccc(CN(C)C[C@H]2OCCCC[C@H](C)Oc3ccc(NC(=O)c4ccncc4)cc3C(=O)N([C@H](C)CO)C[C@@H]2C)cc1 | inactive: 0.998
5 | C[C@H](CO)N1C[C@H](C)[C@@H](CN(C)C(=O)Nc2ccc(F)cc2)OCCCC[C@H](C)Oc2ccc(NC(=O)Nc3cccc4ccccc34)cc2C1=O | inactive: 1.04
6 | Cc1ccc(S(=O)(=O)N(C)C[C@H]2OCCCC[C@@H](C)Oc3ccc(NC(=O)Nc4ccc(C(F)(F)F)cc4)cc3C(=O)N([C@@H](C)CO)C[C@@H]2C)cc1 | inactive: 1.04
7 | C[C@H]1CN([C@@H](C)CO)C(=O)c2cc(C#Cc3cccc(F)c3)cnc2O[C@H]1CN(C)Cc1ccccn1 | inactive: 1
8 | C[C@@H]1CCCCO[C@@H](CN(C)C(=O)C2CCCCC2)[C@H](C)CN([C@H](C)CO)C(=O)c2cc(NS(=O)(=O)c3ccc(F)cc3)ccc2O1 | inactive: 0.993
9 | Cc1ccc(NC(=N)N=C(N)N)c(C)c1 | inactive: 0.963
10 | O=c1cc(Oc2ccc(O)cc2)oc2cc(O[C@@H]3O[C@H](CO[C@@H]4O[C@H](CO)[C@@H](O)[C@H](O)[C@H]4O)[C@@H](O)[C@H](O)[C@H]3O)cc(O)c12 | inactive: 0.994
11 | C[C@H](CO)N1C[C@H](C)[C@H](CN(C)C(=O)Cc2ccccc2)OCCCC[C@H](C)Oc2ccc(NC(=O)Nc3cccc4ccccc34)cc2C1=O | inactive: 1
12 | C[C@@H]1CN([C@@H](C)CO)C(=O)c2cccc(NS(C)(=O)=O)c2O[C@H]1CN(C)S(=O)(=O)c1ccc(F)cc1 | inactive: 1.02
13 | COc1ccc(S(=O)(=O)N(C)C[C@@H]2Oc3ccc(NC(=O)CCN4CCOCC4)cc3C(=O)N([C@@H](C)CO)C[C@@H]2C)cc1 | inactive: 1.02
14 | CO[C@H]1CN(C)C(=O)c2cc(NS(C)(=O)=O)ccc2OC[C@@H](C)N(C(=O)CN(C)C)C[C@@H]1C | inactive: 1
15 | C[C@@H]1CN([C@@H](C)CO)S(=O)(=O)c2ccc(-c3cncnc3)cc2O[C@H]1CN(C)C(=O)C1CCCCC1 | inactive: 1.02
16 | C[C@H]1CN([C@@H](C)CO)C(=O)c2cccc(NC(=O)Nc3cccc4ccccc34)c2O[C@H]1CN(C)S(=O)(=O)c1ccc(F)cc1 | inactive: 0.946
17 | Cc1noc(C)c1NC(=O)Nc1ccc2c(c1)C(=O)N([C@H](C)CO)C[C@@H](C)[C@H](CN(C)S(C)(=O)=O)O2 | inactive: 0.983
18 | C[C@H](CO)N1C[C@H](C)[C@H](CN(C)C(=O)Nc2ccc(C(F)(F)F)cc2)Oc2ccc(NC(=O)Nc3ccc(F)cc3)cc2C1=O | inactive: 0.977
19 | C[C@@H]1CCCCO[C@H](CN(C)C(=O)Nc2ccc(C(F)(F)F)cc2)[C@H](C)CN([C@H](C)CO)C(=O)c2cc(NC(=O)Cc3ccccc3)ccc2O1 | inactive: 1.03
20 | O=P([O-])(O)C(O)(Cc1cccnc1)P(=O)(O)O.[Na+] | inactive: 1.08

Row | SMILES | relative growth
21 | C[C@@H]1CN([C@H](C)CO)C(=O)c2cccc(NS(=O)(=O)c3cn(C)cn3)c2O[C@@H]1CN(C)Cc1ccc(C(=O)O)cc1 | inactive: 1.03
22 | CC(C)c1ccccc1O | inactive: 0.97
23 | Cc1c(-c2cnccn2)ssc1=S | inactive: 1.13
24 | C[C@@H]1CCCCO[C@@H](CN(C)C(=O)Nc2ccc(F)cc2)[C@H](C)CN([C@H](C)CO)C(=O)c2cc(NS(=O)(=O)c3cccs3)ccc2O1 | inactive: 1.03
25 | C[C@@H]1CN([C@@H](C)CO)C(=O)c2c(c3ccccc3n2C)-c2ccccc2CO[C@@H]1CN(C)Cc1cccc(F)c1 | inactive: 0.985
26 | O=C(CN1CCOCC1)NCC[C@@H]1CC[C@H](NC(=O)Nc2ccccc2)[C@@H](CO)O1 | inactive: 1.02
27 | CCC(=O)Nc1ccc2c(c1)OC[C@@H](C)N(Cc1ccc(-c3ccccn3)cc1)C[C@@H](C)[C@H](OC)CN(C)C2=O | inactive: 1
28 | C[C@@H]1CCCCO[C@H](CN(C)Cc2ccccc2)[C@H](C)CN([C@@H](C)CO)C(=O)c2cc(NC(=O)c3ccncc3)ccc2O1 | inactive: 1.01
29 | COc1ccc(S(=O)(=O)N(C)C[C@H]2Oc3ccc(NC(=O)Cn4cnnn4)cc3CC(=O)N([C@@H](C)CO)C[C@@H]2C)cc1 | inactive: 0.994
30 | COCC(=O)N(C)C[C@@H]1Oc2cc(C#Cc3ccccc3)ccc2S(=O)(=O)N([C@H](C)CO)C[C@@H]1C | inactive: 1.01
31 | COc1ccc(NC(=O)Nc2ccc3c(c2)C(=O)N([C@@H](C)CO)C[C@@H](C)[C@H](CN(C)Cc2ccc(-c4ccccc4)cc2)O3)cc1 | inactive: 1.03
32 | CN([NH2+][O-])C(=O)N[C@@H]1[C@@H](O)[C@H](O)[C@H](CO)O[C@@H]1O | inactive: 0.799
33 | C[C@@H]1CN([C@@H](C)CO)C(=O)c2cc(NS(=O)(=O)c3cccs3)ccc2O[C@H]1CN(C)Cc1ccc(Oc2ccccc2)cc1 | inactive: 0.996
34 | O=C1CN(S(=O)(=O)Cc2ccccc2)C[C@H]2[C@@H](c3ccc(C#Cc4ccc(F)cc4)cc3)[C@H](CO)N12 | inactive: 1.03
35 | C[C@@H]1CCCCO[C@@H](CN(C)C(=O)CCC(F)(F)F)[C@@H](C)CN([C@@H](C)CO)C(=O)c2cc(NC(=O)Cc3ccccc3)ccc2O1 | inactive: 1
36 | C[C@@H]1CN([C@@H](C)CO)C(=O)c2cccc(NC(=O)C3CCOCC3)c2O[C@@H]1CN(C)Cc1ccncc1 | inactive: 0.989
37 | O=C(NO)c1ccncc1 | inactive: 0.99
38 | COc1ccc(NC(=O)Nc2cccc3c2O[C@@H](CN(C)Cc2ccc(C(F)(F)F)cc2)[C@@H](C)CN([C@H](C)CO)C3=O)cc1 | inactive: 0.986
39 | NS(=O)(=O)c1ccccc1 | inactive: 0.985
40 | C[C@@H]1CN([C@H](C)CO)S(=O)(=O)c2ccc(C#CC3(O)CCCC3)cc2O[C@@H]1CN(C)C(=O)Cc1ccccc1 | inactive: 1.03

Row | SMILES | relative growth
41 | CN1CCN(C(=O)[C@@H]2[C@@H](CO)[C@@H]3Cn4c(ccc(C5=CCCCC5)c4=O)[C@H]2N3S(C)(=O)=O)CC1 | inactive: 0.964
42 | C[C@H]1CN([C@@H](C)CO)C(=O)c2c(c3ccccc3n2C)-c2ccccc2CO[C@H]1CN(C)Cc1ccc(Oc2ccccc2)cc1 | inactive: 1.01
43 | COc1ccc(CN(C)C[C@H]2OCCCC[C@H](C)Oc3ccc(NC(=O)Nc4ccc(OC)cc4)cc3C(=O)N([C@H](C)CO)C[C@H]2C)cc1 | inactive: 0.975
44 | CCC(=O)Nc1ccc(C)c(C)c1 | inactive: 1.02
45 | COc1ccc(S(=O)(=O)Nc2ccc3c(c2)C(=O)N([C@H](C)CO)C[C@@H](C)[C@H](CN(C)S(=O)(=O)c2ccccc2)O3)cc1 | inactive: 1.03
46 | C[C@@H]1CCCCO[C@H](CN(C)C(=O)c2ccccc2)[C@H](C)CN([C@@H](C)CO)C(=O)c2cc(NC(=O)Nc3ccc(F)cc3)ccc2O1 | inactive: 1.01
47 | C[C@H](CO)N1C[C@H](C)[C@H](CN(C)Cc2ccc(Oc3ccccc3)cc2)Oc2ccc(NC(=O)Nc3ccccc3)cc2C1=O | inactive: 1.02
48 | C[C@@H]1CN([C@H](C)CO)C(=O)c2cc(NC(=O)NC3CCCCC3)ccc2O[C@@H](C)CCCCO[C@H]1CN(C)C(=O)c1ccccc1 | inactive: 0.973
49 | C[C@@H]1CN([C@@H](C)CO)C(=O)CCCn2nncc2CO[C@@H]1CN(C)Cc1ccc(C(=O)Nc2ccccc2N)cc1 | inactive: 1.02
50 | O=C(c1cnn2c1OCCC2)N1CC(O)C1 | inactive: 1.03
51 | C[C@H](CO)N1C[C@H](C)[C@@H](CN(C)S(C)(=O)=O)Oc2ccc(NS(=O)(=O)c3cccs3)cc2C1=O | inactive: 0.974
52 | C[C@H](CO)N1C[C@H](C)[C@@H](CN(C)S(=O)(=O)c2cccs2)OCCCC[C@H](C)Oc2ccc(NS(C)(=O)=O)cc2C1=O | inactive: 1.01
53 | CN1C(=O)c2cc(NC(=O)Cc3cccs3)ccc2OC[C@@H]2O[C@H](CC(=O)NCCCN3CCOCC3)CC[C@H]21 | inactive: 1.02
54 | COc1cccc(NC(=O)N(C)C[C@@H]2OCc3ccccc3-c3c(n(C)c4ccccc34)C(=O)N([C@H](C)CO)C[C@@H]2C)c1 | inactive: 1.02
55 | C[C@H](CO)N1C[C@H](C)[C@@H](CN(C)Cc2ccc(C(=O)O)cc2)Oc2ccc(NC(=O)C3CC3)cc2CC1=O | inactive: 0.989
56 | C[C@@H]1CN([C@H](C)CO)C(=O)c2cc(NS(=O)(=O)c3cccs3)ccc2O[C@H]1CN(C)Cc1ccc(Cl)c(Cl)c1 | inactive: 0.994
57 | C=CCC[C@H](Cc1ccc(F)cc1)C(=O)O[C@H](CNC(=O)[C@@H](CC=C)CC(=O)N(CCO)Cc1ccccc1)c1ccccc1 | inactive: 1.11
58 | Cc1noc(C)c1NC(=O)N(C)C[C@@H]1Oc2ncc(C#CCN(C)C)cc2C(=O)N([C@H](C)CO)C[C@@H]1C | inactive: 0.979
59 | C[C@H]1CN([C@@H](C)CO)C(=O)CCCn2nncc2CO[C@@H]1CN(C)C(=O)c1ccc(N2CCN(C)CC2)cc1 | inactive: 1
60 | O=C(C[C@H]1C[C@H]2c3cc(NS(=O)(=O)c4ccc(F)cc4)ccc3O[C@H]2[C@H](CO)O1)NCc1ccccc1F | inactive: 1
